# Measurements from PubChem BioAssay (Tox21).
# Inconclusive means that the source gave no clear call. Such entries were picked first, then a sample of the others. For some assays here: A potency beside an inconclusive call is a rough fit, not a confirmed value. Activity calls are given as the source filed them. Unless noted, calls come from the whole dose curve; as a rule, active = well fitted curve in the direction sought with a large enough effect in the repeat runs; inconclusive = weak or mixed curves; inactive = no such curve, though single readings can be large; an effect the other way counts as inactive or inconclusive.
# Tests used:
# [1] = qHTS assay to identify small molecule antagonists of the estrogen receptor alpha (ER-alpha) signaling pathway using the BG1 cell line (AID 743080; calls by dose curve;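 note: BG1 cells stimulated with 17beta-estradiol alongside compound; nearly all actives have a fitted effect of over 25% in size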; note: potency is the fitted concentration of half-maximal effect); details: BG1Luc4E2 ERE-luciferase antagonist mode, luminescence; activity change, negative = inhibition: at 70.3 µM (top of the series) unless noted
# How it was run: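 Endogenous full-length ER-alpha in BG1-Luc-4E2 cells drives a stably integrated 4×ERE luciferase gene; compounds were tested against 17beta-estradiol over 21.5 h, with luminescence and multiplexed viability fluorescence recorded.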
# [2] = qHTS assay to identify small molecule antagonists of the peroxisome proliferator-activated receptor gamma (PPARg) signaling pathway - cell viability counter screen (AID 743194); details: PPARg-bla HEK293H viability, CellTiter-Glo luminescence, 17 h; Potency: co-treated with 50 nM rosiglitazone unless noted; activity change, negative = cytotoxicity: at 62.6 µM (top of the series), co-treated with 50 nM rosiglitazone unless noted; note: potency is the fitted concentration of half-maximal effect; nearly all actives have a fitted effect of over 55% in size
# How it was run: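 PPARg-UAS-bla HEK293H cells were plated, rested 5 h at 37 C, then treated with compounds plus rosiglitazone (50 nM final) for 17 h at 37 C; viability was then read by CellTiter-Glo luminescence after 30 min at room temperature.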
# [3] = qHTS assay to identify small molecule antagonists of the estrogen related receptor (ERR) signaling pathway from Tox21 library - cell viability counter screen (AID 1224834); note: nearly all actives have a fitted effect of over 30% in size; note: potency is the fitted concentration of half-maximal effect
# How it was run: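 Viability readout (CellTiter-Fluor fluorescence, 30 min at 37 C) multiplexed with the ERR assay; cells treated 17.5 h at 37 C with compounds delivered in DMSO.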
# [4] = A CellTox Green Cytotoxicity Assay to monitor cytotoxicity in HepG2 cells - 40 hour (AID 1224879); note: potency is the fitted concentration of half-maximal effect; nearly all actives have a fitted effect of over 40% in size
# How it was run: (§1)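 Continuous culture of HepG2 cells with a membrane-impermeant DNA dye; rising fluorescence marks dead cells. Compound exposure lasted up to 40 h at 37 C, with reads every 8 h from 0 h.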
# [5] = qHTS assay to identify small molecule agonists of H2AX (AID 1224845; active = well fitted activation curve with a large enough effect in the signal ratio in the repeat runs, not every such curve was filed as active; inconclusive = weak or mixed curves; the % refers to the signal ratio; note: potency is the fitted concentration of half-maximal effect); details: CHO-K1 phospho-H2AX Ser139 HTRF, 3 h; series mostly up to 154 µM
# How it was run: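 Wild-type CHO-K1 cells plated overnight, then exposed 3 hr at 37C to compounds at 15 concentrations (0.76% DMSO). Lysed, then HTRF anti-pH2AX(S139)-cryptate/anti-H2AX-d2 detection after 24 hr at room temperature; emissions 665 and 620 nm.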
# [6] = qHTS assay to identify small molecule agonists of the sonic hedgehog signaling (Shh) pathway - cell viability counter screen (AID 1259366); note: potency is the fitted concentration of half-maximal effect; nearly all actives have a fitted effect of over 50% in size
# How it was run: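 Cells are plated at 2,000 per well and left 4hr at 37C, 5% CO2 before compound addition. After 23hr of treatment, CellTiter-Fluor reagent is added for 1hr at 37C and fluorescence is measured.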
# [7] = qHTS assay to identify small molecule antagonists of the sonic hedgehog signaling (Shh) pathway - cell viability counter screen (AID 1259367); note: nearly all actives have a fitted effect of over 55% in size; note: potency is the fitted concentration of half-maximal effect
# How it was run: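 After a 4 hr settling period, 3T3 Gli1-Luc cells were treated with DMSO-dissolved chemicals and conditioned medium, kept 24 hr at 37C in 5% CO2, and assayed for viability by CellTiter-Fluor fluorescence following 1 hr reagent incubation.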
# [8] = target: Thyrotropin receptor (Homo sapiens) (UniProt P16473); assay: qHTS assay to identify small molecule antagonists of the thyroid stimulating hormone receptor (TSHR) signaling pathway (AID 1259385; calls by dose curve; note: potency is the fitted concentration of half-maximal effect; nearly all actives have a fitted effect of over 20% in size); details: TSHR-HEK293 cAMP HTRF, TSH-stimulated antagonist mode; activity change, negative = inhibition: at 92.4 µM (top of the series)
# How it was run: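 TSHR-HEK293 cells were plated and held 18 h at 37C/5% CO2, then given compound plus Ro20-1724 and stimulated with TSH at 1.5 ng/mL final. After 30 min at room temperature, cAMP was detected with cAMP-d2/anti-cAMP-cryptate (1 h) by fluorescence.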
# [9] = target: Aryl hydrocarbon receptor (Homo sapiens) (UniProt P35869); assay: qHTS assay to identify small molecule that activate the aryl hydrocarbon receptor (AhR) signaling pathway (AID 743085); note: potency is the fitted concentration of half-maximal effect; nearly all actives have a fitted effect of over 15% in size
# How it was run: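 Compounds were tested in HepG2 hepatocellular carcinoma cells harbouring a stably integrated luciferase gene under control of 20 DREs. Increased reporter signal after 24 h treatment at 37C was taken as AhR activation.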
# [10] = target: Peroxisome proliferator-activated receptor gamma (Homo sapiens) (UniProt P37231); assay: qHTS assay to identify small molecule agonists of the peroxisome proliferator-activated receptor gamma (PPARg) signaling pathway (AID 743094; active = well fitted activation curve with a large enough effect in the signal ratio in the repeat runs, not every such curve was filed as active; inconclusive = weak or mixed curves, or effect the other way; inactive = no such curve, though single readings can be large or run the other way; the % refers to the signal ratio); details: HEK293H PPARg-UAS-bla, beta-lactamase FRET ratio, 17 h; activation: at 57 µM (top of the series) unless noted
# How it was run: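 Stably transfected HEK293H cells (GeneBLAzer PPARg UAS-bla) were incubated with test substances for 17 h at 37C after a 5 h pre-incubation; beta-lactamase activity was then detected by FRET substrate fluorescence.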
# [11] = qHTS assay to identify small molecule antagonists of the estrogen related receptor signaling pathway with the pleiotropic PPARgamma coactivator (PGC) from Tox21 10K library (AID 1224841; call rule not given here; note: potency is the fitted concentration of half-maximal effect; actives are mostly falling curves and most rising ones were filed inactive; nearly all actives have a fitted effect of over 50% in size)
# How it was run: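 Compound exposure ran 18 hours at 37 C in PGC/ERR cells (2,000/well) that had first rested 6 hours in a 37 C/5% CO2 incubator. Luciferase activity was then detected with One-Glo after a 30-minute room-temperature step.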
# [12] = A CellTox Green Cytotoxicity Assay to monitor cytotoxicity in HepG2 cells - 32 hour (AID 1224883); note: nearly all actives have a fitted effect of over 50% in size; note: potency is the fitted concentration of half-maximal effect
# How it was run: as §1
# [13] = qHTS assay to identify small molecule antagonists of the androgen receptor (AR) signaling pathway - cell viability counter screen (AID 743033; note: nearly all actives have a fitted effect of over 45% in size; note: potency is the fitted concentration of half-maximal effect)
# [14] = Human pregnane X receptor (PXR) small molecule agonists, qHTS cell viability counter screen (AID 1346977); note: nearly all actives have a fitted effect of over 50% in size; note: potency is the fitted concentration of half-maximal effect
# How it was run: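 Cytotoxicity counter screen run in the same wells as the PXR luciferase assay, using PXR-Luc HepG2 cells in charcoal-stripped serum medium. Viability: CellTiter-Fluor fluorescence after 24hr compound treatment.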
# [15] = qHTS assay to identify small molecule antagonists of the estrogen receptor alpha (ER-alpha) signaling pathway using the BG1 cell line - cell viability counter screen (AID 743081); details: BG1Luc4E2 viability, CellTiter-Fluor, 22 h; activity change, negative = cytotoxicity: at 70.3 µM (top of the series);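 note: compound given together with 17beta-estradiol as the ER stimulus; nearly all actives have a fitted effect of over 45% in size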
# [16] = qHTS assay to identify small molecule agonists of the peroxisome proliferator-activated receptor delta (PPARd) signaling pathway - cell viability counter screen (AID 743211); details: PPARd-bla HEK293H viability, CellTiter-Glo luminescence, 17 h; activity change, negative = cytotoxicity: at 62.6 µM (top of the series); note: potency is the fitted concentration of half-maximal effect; nearly all actives have a fitted effect of over 55% in size
# How it was run: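 Counter screen for cytotoxicity run in parallel with the PPARd reporter screen. Beta-lactamase reporter HEK293H cells exposed to compounds 17 h; ATP-based CellTiter-Glo luminescence quantified viability.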
# Tags give direction and shape of the fitted curve or compound fluorescence and quenching.
# Chain of UniProt P37231 (P37231 whole entry, looked up): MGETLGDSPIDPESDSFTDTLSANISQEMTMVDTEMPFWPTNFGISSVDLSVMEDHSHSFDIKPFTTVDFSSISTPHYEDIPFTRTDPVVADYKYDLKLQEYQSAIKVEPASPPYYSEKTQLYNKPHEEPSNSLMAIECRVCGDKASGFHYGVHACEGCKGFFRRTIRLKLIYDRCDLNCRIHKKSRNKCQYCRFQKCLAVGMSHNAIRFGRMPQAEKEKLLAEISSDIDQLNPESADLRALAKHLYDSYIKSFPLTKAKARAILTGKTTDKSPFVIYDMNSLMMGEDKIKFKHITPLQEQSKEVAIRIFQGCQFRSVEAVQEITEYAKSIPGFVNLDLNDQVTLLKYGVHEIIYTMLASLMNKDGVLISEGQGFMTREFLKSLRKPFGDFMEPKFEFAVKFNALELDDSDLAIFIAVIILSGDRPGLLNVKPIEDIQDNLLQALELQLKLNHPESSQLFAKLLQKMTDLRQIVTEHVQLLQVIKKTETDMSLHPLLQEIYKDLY
# Chain of UniProt P16473 (P16473 whole entry, looked up): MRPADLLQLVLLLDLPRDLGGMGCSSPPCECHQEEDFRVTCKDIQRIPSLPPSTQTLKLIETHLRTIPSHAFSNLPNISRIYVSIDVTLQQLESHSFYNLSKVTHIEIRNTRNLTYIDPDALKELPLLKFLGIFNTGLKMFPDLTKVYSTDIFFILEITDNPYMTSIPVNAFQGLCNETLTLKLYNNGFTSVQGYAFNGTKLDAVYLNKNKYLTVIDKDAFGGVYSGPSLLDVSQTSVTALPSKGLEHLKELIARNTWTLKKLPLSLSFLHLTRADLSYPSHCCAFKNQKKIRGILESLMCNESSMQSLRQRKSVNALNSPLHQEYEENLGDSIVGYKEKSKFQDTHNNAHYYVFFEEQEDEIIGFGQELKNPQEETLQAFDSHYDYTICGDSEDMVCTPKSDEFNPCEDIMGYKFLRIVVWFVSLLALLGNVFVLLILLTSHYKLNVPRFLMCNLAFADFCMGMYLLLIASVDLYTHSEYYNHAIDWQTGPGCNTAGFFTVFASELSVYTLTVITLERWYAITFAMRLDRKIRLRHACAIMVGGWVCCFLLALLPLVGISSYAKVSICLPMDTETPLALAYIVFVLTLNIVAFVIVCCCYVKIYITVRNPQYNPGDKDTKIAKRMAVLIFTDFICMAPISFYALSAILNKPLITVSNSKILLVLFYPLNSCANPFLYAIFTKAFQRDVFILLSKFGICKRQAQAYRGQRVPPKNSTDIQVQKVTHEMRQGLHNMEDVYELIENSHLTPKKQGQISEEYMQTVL
# Chain of UniProt P35869 (P35869 whole entry, looked up): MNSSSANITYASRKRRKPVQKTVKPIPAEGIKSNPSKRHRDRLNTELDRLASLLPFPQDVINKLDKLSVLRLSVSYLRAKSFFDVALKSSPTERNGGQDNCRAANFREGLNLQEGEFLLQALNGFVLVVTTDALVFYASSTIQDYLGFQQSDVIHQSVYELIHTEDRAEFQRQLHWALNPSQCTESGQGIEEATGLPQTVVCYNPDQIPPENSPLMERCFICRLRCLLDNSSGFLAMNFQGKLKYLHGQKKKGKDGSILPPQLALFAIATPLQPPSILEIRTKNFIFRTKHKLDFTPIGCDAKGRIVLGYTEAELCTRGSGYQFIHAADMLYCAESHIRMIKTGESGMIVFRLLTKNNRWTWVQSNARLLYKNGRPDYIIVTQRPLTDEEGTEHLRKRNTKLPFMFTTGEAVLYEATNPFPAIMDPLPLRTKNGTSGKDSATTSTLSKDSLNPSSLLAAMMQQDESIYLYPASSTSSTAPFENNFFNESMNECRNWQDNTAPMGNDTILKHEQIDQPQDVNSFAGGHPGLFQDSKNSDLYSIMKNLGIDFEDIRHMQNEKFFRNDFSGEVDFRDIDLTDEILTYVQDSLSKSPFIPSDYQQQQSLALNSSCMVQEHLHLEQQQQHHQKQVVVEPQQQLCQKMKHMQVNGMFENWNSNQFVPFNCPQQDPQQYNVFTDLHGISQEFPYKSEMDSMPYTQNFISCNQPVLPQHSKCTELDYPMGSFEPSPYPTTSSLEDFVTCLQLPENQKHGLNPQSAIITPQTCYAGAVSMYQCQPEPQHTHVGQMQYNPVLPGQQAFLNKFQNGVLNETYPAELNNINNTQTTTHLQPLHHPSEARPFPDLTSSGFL
smiles,measurement,setting,value
O=c1[nH]c2ccccc2c(=O)o1,Potency,[1],inactive
same,Potency,[2],"inconclusive: 0.222 µM [rising, single point]"
same,Potency,[3],inactive
same,Potency,[4],"inconclusive: 62.6 µM [activator, partial curve, poor fit]"
CCOC(=O)C(c1c(O)c2ccccc2oc1=O)c1c(O)c2ccccc2oc1=O,Potency,[5],inactive
same,Potency,[6],"inconclusive: 16.8 µM [cytotoxic, partial curve, poor fit]"
same,Potency,[7],"inconclusive: 18.8 µM [cytotoxic, partial curve, poor fit]"
same,Potency,[8],"inconclusive: 37.6 µM [falling, single point]"
CC(C)(C)OC(=O)c1ncn2c1[C@@H]1CCCN1C(=O)c1c(Br)cccc1-2,Potency,[9],"inconclusive: 21.1 µM [activator, partial curve]"
same,Potency,[10],inactive
same,Potency,[3],"inconclusive: 26.6 µM [cytotoxic, partial curve]"
same,Potency,[11],"inconclusive: 33.5 µM [falling, single point]"
same,Potency,[5],"inconclusive: 1.1 µM [inhibitor, full curve]"
same,Potency,[12],inactive
[As]#[In],Potency,[13],inactive
same,Potency,[4],"inconclusive: 0.49 µM [activator, single point]"
same,Potency,[12],"inconclusive: 0.49 µM [activator, single point]"
same,Potency,[14],inactive
COc1cc(OC)nc(Sc2cccc(Cl)c2C(=O)O)n1,Potency,[3],inactive
same,Potency,[12],inactive
CCOS(C)(=O)=O,Potency,[7],inactive
same,Potency,[14],"inconclusive: 69.9 µM [rising, partial curve]"
COc1ccc2c(c1OC)CN1CCc3cc4c(cc3C1C2)OCO4 (configuration not stated),Potency,[15],inactive
same,Potency,[16],"inconclusive: 18.8 µM [cytotoxic, partial curve]"
same,Potency,[3],"inconclusive: 29.8 µM [cytotoxic, partial curve]"
Fc1ccc(C2(Cn3cncn3)OC2c2ccccc2Cl)cc1 (configuration not stated),Potency,[13],"inconclusive: 43.6 µM [cytotoxic, partial curve, poor fit]"
same,Potency,[1],active: 68.6 µM
same,Potency,[3],"inconclusive: 68.6 µM [cytotoxic, single point]"
same,Potency,[11],active: 38.6 µM
same,Potency,[4],"inconclusive: 49 µM [activator, single point]"
same,Potency,[12],"inconclusive: 43.6 µM [activator, single point]"
same,Potency,[14],"inconclusive: 68.6 µM [cytotoxic, partial curve, poor fit]"
